# Laboratory results taken from PubChem BioAssay AID1347430 (National Center for Advancing Translational Sciences (NCATS), 2020).
# Screen size: about 91,000 compounds; about 130 (0.14%) were called active. Inconclusive means that the source gave no clear call. Such entries were picked first, then a sample of the others. Calls come from the whole dose curve; as a rule, active = well fitted inhibition curve with a large enough effect; inconclusive = small, poorly fitted or top-dose-only effect; inactive = flat fitted curve, though single readings scatter. Potencies beside an inconclusive call are fits to weak or partial responses and may not hold up.
# Tested on: Uracil-DNA glycosylase
# Experiment: Primary qHTS assay for inhibitors of Activation Induced Cytidine Deaminase (AID): UDG Counterscreen signal; note: nearly all actives have a fitted effect of over 65% in size
# Conditions: FRET deamination/UDG coupled assay, UDG read, 4 h; series mostly up to 115 µM
# Potency is the fitted concentration of half-maximal effect; tags give direction and shape of the fitted curve.
row,SMILES,Potency
1,Cc1ccc(C(=O)Nc2nnc(SCc3cc(=O)c4c(C)ccc(C)c4[nH]3)s2)cc1,"inconclusive: 28.2 µM [inhibitor, partial curve, poor fit]"
2,Cc1cc(C)c2oc(-c3cc(NC(=O)c4ccco4)ccc3O)nc2c1,"inconclusive: 89.1 µM [inhibitor, single point]"
3,O=C(CC1N=C2c3ccccc3N=C(SCc3cccc(Cl)c3)N2C1=O)NC1CCCCC1 (stereo not given),"inconclusive: 89.1 µM [inhibitor, single point]"
4,COc1cccc(C(=O)Nc2ccccc2-c2nc(-c3ccc(C)cc3)no2)c1,"inconclusive: 89.1 µM [inhibitor, single point]"
5,Cc1ccc(CN(C)C(=O)COc2ccc3ccc(=O)oc3c2)cc1,inactive
6,CCCc1ccc(NC(=O)c2nccnc2N)cc1,inactive
7,CCCc1nn2c(=O)cc(COC(=O)c3ccco3)nc2s1,"inconclusive: 100 µM [inhibitor, single point]"
8,CCOc1cc(/C=C(\C#N)c2nc3ccccc3[nH]2)ccc1OC(C)C,inactive
9,CCn1cc(S(=O)(=O)c2ccc(C)cc2C)c(=O)c2cc(F)c(N3CCCCC3)cc21,"inconclusive: 56.2 µM [inhibitor, partial curve, poor fit]"
10,CNC(=O)NC(=O)C(C)SC(C)c1c(F)cccc1F (stereo not given),inactive
11,CSc1ncc(Cl)c(C(=O)N(Cc2ccc(C(C)C)cc2)C2CCS(=O)(=O)C2)n1 (stereo not given),"inconclusive: 79.4 µM [inhibitor, partial curve, poor fit]"
12,CC(C)CCNc1ncnc2c1cnn2-c1cccc(Cl)c1,"inconclusive: 79.4 µM [inhibitor, single point]"
13,CNC(=S)N/N=C(/C)c1ccccn1,inactive
14,O=C(CC1Nc2cccc3cccc(c23)NC1=O)Nc1ccc(F)cc1 (stereo not given),"inconclusive: 79.4 µM [inhibitor, partial curve]"
15,CC(C)OCCCN1C(=O)c2[nH]nc(-c3ccccc3O)c2C1c1cccc(OCc2ccccc2)c1 (stereo not given),"inconclusive: 70.8 µM [inhibitor, partial curve]"
16,CC(Oc1ccc(Cl)cc1Cl)c1nc(-c2ccncc2)no1 (stereo not given),"inconclusive: 89.1 µM [inhibitor, single point]"
17,CCOC(=O)CN(Cc1cccs1)C1CC1,inactive
18,O=C(COCc1cc(-c2cccs2)on1)Nc1cccc(Cl)c1Cl,"inconclusive: 89.1 µM [inhibitor, single point]"
19,COc1ccc(-c2cc3ccc(OS(=O)(=O)c4ccccc4)cc3oc2=O)cc1OC,inactive
20,CC1CCN(C(=O)CN2CCSc3ccccc32)CC1,"inconclusive: 89.1 µM [inhibitor, single point]"
21,Oc1ccc(O)c([S+]2CCCC(C3CCCCC3)C2)c1 (stereo not given),"inconclusive: 31.6 µM [inhibitor, partial curve, poor fit]"
22,COc1ccccc1CNC(=O)C1CCCN(c2nn3cc(-c4ccc(F)cc4)nc3s2)C1 (stereo not given),"inconclusive: 100 µM [inhibitor, single point]"
23,CC(C)c1ccc(/C=C2\Oc3cc(OS(C)(=O)=O)ccc3C2=O)cc1,inactive
24,CCOc1ccc(C2c3[nH]c4ccccc4c3CCN2C(=O)Cc2cccc(OCC)c2OCC)cc1 (stereo not given),"inconclusive: 89.1 µM [inhibitor, partial curve, poor fit]"

row,SMILES,Potency
1,C/C(=C\C(=O)O)C(=O)Nc1cccc(C(F)(F)F)c1,inactive
2,O=C(CCCSc1nc2ccccc2s1)Nc1ccc(F)c(F)c1F,inactive
3,Cc1n[nH]c(C)c1S(=O)(=O)N1CCCC(C(=O)Nc2ccc(Cl)cc2)C1 (stereo not given),"inconclusive: 28.2 µM [inhibitor, full curve, poor fit]"
4,COc1ccc(C(=O)Nc2nc3c(s2)CCc2cc(OC)ccc2-3)cc1,active: 79.4 µM
5,Cc1ccc(NC(=O)Cc2nnc(SCC(=O)NC34CC5CC(CC(C5)C3)C4)n2C)cc1C,active: 89.1 µM
6,Cc1ccc(Nc2nc(-c3sc(C)nc3C)cs2)cc1,"inconclusive: 89.1 µM [inhibitor, single point]"
7,COc1ccc(Cl)cc1COc1ccccc1C#N,inactive
8,Cc1ccc(S(=O)(=O)c2nc(-c3ccccc3Cl)oc2N2CCCCCC2)cc1,"inconclusive: 89.1 µM [inhibitor, partial curve, poor fit]"
9,CCn1c(=O)n(-c2ccc(F)c(Cl)c2)c(=O)c2c3c(sc21)CN(C(C)=O)CC3,"inconclusive: 89.1 µM [inhibitor, single point]"
10,CC(C)c1ccc(C(=O)N2CCN(C/C=C/c3ccccc3)CC2)cc1,inactive
11,Cc1cc(C)cc(NS(=O)(=O)c2ccc(-n3cccn3)cc2)c1,inactive
12,COCCCNC(=O)c1oc2c(c1C)-c1nn(Cc3ccc(Cl)cc3)cc1CC2,inactive
13,CS(=O)(=O)N(CC(=O)Nc1ccc(Br)cc1)c1ccccc1Br,inactive
14,COc1cccc(N2CCN(C(=O)C3CCN(S(=O)(=O)c4cccc5nonc45)CC3)CC2)c1,"inconclusive: 100 µM [inhibitor, single point]"
15,COc1ccc(CCNC(=O)Cn2nc(C)n3c(cc4cc(F)ccc43)c2=O)cc1OC,"inconclusive: 35.5 µM [inhibitor, partial curve, poor fit]"
16,CCCCN(C)C(=O)Cn1c(C2CC(=O)N(c3ccc(C)cc3)C2)nc2ccccc21 (stereo not given),"inconclusive: 89.1 µM [inhibitor, single point]"
17,CCCOc1ccc(-c2nn(-c3ccccc3)cc2C2NC(=O)NC(C)=C2C(=O)OC)cc1 (stereo not given),inactive
18,CC(C)Cc1nnc(NC(=O)c2ccc3c(ccn3C)c2)s1,"inconclusive: 89.1 µM [inhibitor, single point]"
19,Cc1ccc(NC(=O)CSc2nc(-c3ccc(C(C)(C)C)cc3)nc3cc(=O)[nH]n23)cc1C,"inconclusive: 100 µM [inhibitor, single point]"
20,Cc1cccc(N2CCN(C(=O)c3c(C)oc4ncnc(N5CCOCC5)c34)CC2)c1C,inactive
21,Cc1nn(C(=O)COc2ccccc2Br)c(C)c1Sc1ccccc1,"inconclusive: 89.1 µM [inhibitor, single point]"
22,CCOc1ccc(C(=O)N(Cc2cc(OC)c(OC)c(OC)c2)c2ccccn2)cc1,"inconclusive: 89.1 µM [inhibitor, single point]"
23,COc1ccc(CCNC(c2ccc(F)cc2)c2nnc(-c3ccccc3Cl)o2)cc1OC (stereo not given),"inconclusive: 89.1 µM [inhibitor, single point]"
24,COc1ccc(OC)c(NC(=O)CSc2ncc3c(n2)-c2ccccc2N(C)S3(=O)=O)c1,"inconclusive: 89.1 µM [inhibitor, single point]"

row,SMILES,Potency
1,CCCCS(=O)(=O)CC(O)CSc1nc(-c2ccc(C)cc2)cc(-c2ccccc2)c1C#N (stereo not given),"inconclusive: 89.1 µM [inhibitor, partial curve, poor fit]"
2,CCOC(=O)/C(C#N)=C/c1ccc(-c2ccc(Br)cc2)o1,"inconclusive: 100 µM [inhibitor, single point]"
3,O=C(Nc1ccc(F)cc1F)c1cc(-c2ccc(Cl)cc2)on1,"inconclusive: 89.1 µM [inhibitor, single point]"
4,CCc1cccc(NS(=O)(=O)c2ccc(-n3cccn3)cc2)c1,inactive
5,Cc1ccc(CN2CCc3nc(Nc4ccc5c(c4)OCCO5)ncc3C2)cc1,"inconclusive: 100 µM [inhibitor, single point]"
6,CCS(=O)(=O)N1CCc2cc(C(=O)Nc3ccc(C(=O)OC)cc3)ccc21,"inconclusive: 89.1 µM [inhibitor, single point]"
7,CC(=O)N1CCN(C(=O)c2cc3ccc(F)cc3nc2C)CC1,inactive
8,O=C(/C=C/C=C/c1ccco1)c1ccc(N2CCOCC2)cc1,inactive
9,O=C(CSc1oc(-c2ccco2)nc1S(=O)(=O)c1ccc(Cl)cc1)c1ccc(Cl)cc1,"inconclusive: 50.1 µM [inhibitor, partial curve, poor fit]"
10,CCC(C(=O)Nc1cccc(C#N)c1)n1c(=O)c(-c2ccccc2NC(C)=O)nc2ccccc21 (stereo not given),"inconclusive: 89.1 µM [inhibitor, single point]"
11,N.N.N.N.N.N.N.N.N.N.N.N.N.N.O.O.[Ru+4].[Ru+5].[Ru+5],active: 31.6 µM
12,Cc1cc(C)n(-c2nc3ccccc3nc2N2CCN(C(=O)c3ccccc3)CC2)n1,inactive
13,CCCCN(CC)CCCNC(=O)c1cc2c(-c3ccc(OC)c(OC)c3)nn(C)c2s1,"inconclusive: 89.1 µM [inhibitor, single point]"
14,COc1ccc(C2=C(O)C(=O)N(CCc3ccccc3)C2c2ccc(C(=O)O)cc2)cc1 (stereo not given),inactive
15,COc1ccc(OCC(=O)Nc2cc(-c3cccc(Cl)c3)nn2-c2ccccc2)cc1,"inconclusive: 100 µM [inhibitor, single point]"
16,COc1ccccc1NC(=O)CN(c1ccc(C(C)C)cc1)S(=O)(=O)c1c(C)noc1C,inactive
17,COc1cc2c(cc1OC)C(c1ccc(Cl)cc1)N(c1ccc(C)c(F)c1)C(=O)C2 (stereo not given),"inconclusive: 100 µM [inhibitor, single point]"
18,CC(=O)Nc1ccc(CNC(=O)c2nccnc2N)cc1,inactive
19,CC(C)(C)c1[nH]c2c(F)cc(F)cc2c1C=O,inactive
20,CCOc1ccc(NC(=O)CC2C(=O)N(c3ccc(C)cc3)C(=O)N2C2CCCCC2)cc1 (stereo not given),"inconclusive: 79.4 µM [inhibitor, partial curve, poor fit]"
21,Oc1ccc(N=Cc2cccc3ccccc23)cc1,"inconclusive: 44.7 µM [inhibitor, partial curve]"
22,CCOc1ccccc1-c1noc(CCCC(=O)Nc2cccc(C(F)(F)F)c2)n1,"inconclusive: 89.1 µM [inhibitor, partial curve, poor fit]"
